Test results as given in the supplement of paper PMC3334620.
Over roughly 33,000 sequences, “E-score (-0.5 to 0.5)” has its median near -0.016; the highest 2% begin near 0.32. The list shows a part of the results.

target: T1, Stp1 (UniProt B3LFK1); assay: PBM E-score (8-mer binding enrichment) (E-score (-0.5 to 0.5)); higher = stronger / more preferred TF binding; most listed sequences are background and not binding sites; settings: protein concentration: 200 nM; construct: GST-full length
T1 sequence: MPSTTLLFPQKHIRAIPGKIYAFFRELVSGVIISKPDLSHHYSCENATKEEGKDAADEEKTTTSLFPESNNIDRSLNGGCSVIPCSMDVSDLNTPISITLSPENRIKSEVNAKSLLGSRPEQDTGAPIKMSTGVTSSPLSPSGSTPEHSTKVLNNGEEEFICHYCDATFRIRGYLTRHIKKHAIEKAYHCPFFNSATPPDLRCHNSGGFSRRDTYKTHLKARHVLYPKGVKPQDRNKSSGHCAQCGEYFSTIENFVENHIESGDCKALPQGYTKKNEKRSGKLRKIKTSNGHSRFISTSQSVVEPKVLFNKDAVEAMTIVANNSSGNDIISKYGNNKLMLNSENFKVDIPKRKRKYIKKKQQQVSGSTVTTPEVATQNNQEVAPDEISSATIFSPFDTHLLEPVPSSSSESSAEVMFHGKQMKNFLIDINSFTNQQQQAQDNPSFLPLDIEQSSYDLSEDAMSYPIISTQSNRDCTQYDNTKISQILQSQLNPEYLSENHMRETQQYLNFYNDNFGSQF
Procedure, shortened: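 Universal all-10-mer Agilent arrays, double-stranded by primer extension on fresh or once-stripped slides, were probed with about 100-200 nM GST-tagged yeast transcription factors made by PURExpress. Fluorescent anti-GST detected bound protein, and masliner normalised the scans. E-scores from the Universal PBM Analysis Suite were given to each ungapped eight-base word pooled with its reverse complement.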

| Sequence | PBM E-score |
| --- | --- |
| CCACTTGC | -0.039 |
| ACCCATCT | -0.0565 |
| CAAGAACA | 0.108 |
| ATCTCCGC | -0.0598 |
| GGTATGTA | -0.0225 |
| CGACTCGA | -0.115 |
| CGTCGGAA | -0.0303 |
| AAATGAAA | 0.258 |
| AGGCTTAA | -0.0554 |
| ATGTTATA | 0.0942 |
| ATAGGCAA | -0.0665 |
| ACTCGCTC | -0.0965 |
| AGGAACCT | -0.0332 |
| GGCCGCCA | -0.12 |
| CCATCTCC | -0.0527 |
| AGCTCTTA | -0.0314 |
| CTAGATGC | 0.0388 |
| AGGATTCC | -0.192 |
| GACTGTGA | -0.197 |
| AGCCCATA | -0.239 |
| CTCCTGGA | -0.167 |
| GCGCTCGA | 0.0767 |
| TAATTCTA | 0.0907 |
| ACGTCGGG | -0.224 |
| GCCGGACA | 0.218 |

| Sequence | PBM E-score |
| --- | --- |
| CCGCGTTA | 0.277 |
| ATCCAGTG | -0.0327 |
| AGTTTAAG | -0.0872 |
| TTAAGCAA | -0.0364 |
| CTGAGACA | -0.0735 |
| GATTAGGA | -0.0114 |
| CTCAGGAA | -0.241 |
| AGATCCAT | -0.0592 |
| CAGAGCGC | -0.131 |
| AAAATCGT | 0.0229 |
| AGGCGCGG | 0.355 |
| GGAGAACC | -0.243 |
| ATGGGAGA | -0.316 |
| CTGTTTCA | 0.038 |
| TAAACTTA | -0.0782 |
| GTGCCAAC | 0.0845 |
| CCGAAAAG | 0.0457 |
| GCGAAGCC | -0.0451 |
| ATCCCTGA | -0.185 |
| AGGGTCCC | -0.277 |
| AGCTTTGG | -0.071 |
| AAACAGAT | 0.158 |
| ACGTAATG | 0.142 |
| GTTCGACA | 0.184 |
| CCGGCTCC | -0.129 |

| Sequence | PBM E-score |
| --- | --- |
| AGGGCCAC | -0.0587 |
| AGTGCGGA | 0.224 |
| CAATATCC | -0.0268 |
| CTGTCTCA | -0.0512 |
| CACGATAC | -0.0326 |
| GCGTTTTA | 0.141 |
| CCATTTCC | 0.116 |
| CAGCCGAG | -0.0997 |
| AATTAAAT | 0.0676 |
| TATAGGCA | -0.0593 |
| TAGTTGAA | 0.0675 |
| AGACTCCA | -0.314 |
| AAGTACCA | 0.0493 |
| GTCCAAGA | -0.0868 |
| TCACGCCA | 0.116 |
| AATAATAA | 0.269 |
| AAAACAAT | 0.144 |
| CGTCCACC | -0.107 |
| ATTGCTTG | 0.0754 |
| GGTAAGGA | -0.0448 |
| CTCTCAAA | 0.0595 |
| ATAACAGC | 0.163 |
| CCACGTTC | -0.157 |
| AAGCTGGT | -0.111 |
| TGAAGCCA | 0.0179 |

| Sequence | PBM E-score |
| --- | --- |
| GGCTTAAA | 0.173 |
| GCGAGCGC | 0.0226 |
| GCACTCAC | -0.0646 |
| ATCCTTCA | 0.0336 |
| GACTTCAC | -0.186 |
| CATTGGGC | -0.0993 |
| TAGCTCAA | 0.0239 |
| AAAGTTGC | 0.0865 |
| TACCGTCA | 0.0689 |
| CCTGGCGA | -0.164 |
| TGAGCGCA | -0.143 |
| CGCCCAGA | -0.119 |
| AGGGCCCC | -0.324 |
| AGGGGTCC | -0.323 |
| ACCGTTTG | 0.0535 |
| CCTTAGGA | -0.0115 |
| TATTTCAA | 0.151 |
| AATCCAGT | -0.00903 |
| CAACAGGC | -0.106 |
| ATTGTATA | 0.113 |
| TGGCAACA | 0.195 |
| CGGAGGAA | -0.229 |
| AGGTCTTG | -0.288 |
| AAGGGGGA | -0.275 |
| CATGATGA | 0.149 |

| Sequence | PBM E-score |
| --- | --- |
| TACGCGAA | 0.0568 |
| AGCATGTG | -0.123 |
| AGGCTAGG | -0.268 |
| AAGGCGGT | 0.105 |
| CGATCATC | -0.156 |
| TTGCACAA | 0.181 |
| ACCGGTGC | -0.144 |
| AATAGTTC | 0.0784 |
| AATAACTC | -0.0209 |
| GGAACGTA | -0.107 |
| CGCGGAAG | -0.0339 |
| GCATTGCC | 0.141 |
| GGATCCAA | -0.0224 |
| CCGCTAAA | 0.0947 |
| CCCAGCCC | -0.301 |
| AAGTATCG | -0.0707 |
| ACGGCGGC | 0.445 |
| AGTGCTGA | -0.144 |
| ACGAACCG | -0.171 |
| CCCTTACC | -0.254 |
| AGCTCTTG | -0.247 |
| ATTAAAGG | 0.116 |
| ATTTCCAC | 0.0875 |
| GAAACTTC | 0.0677 |
| ATCCGTCC | -0.127 |

| Sequence | PBM E-score |
| --- | --- |
| CGGGTACC | -0.269 |
| GTATGATA | 0.262 |
| CACCCTTA | -0.0284 |
| ACGTCAAA | 0.147 |
| GCCAGGCA | -0.107 |
| CTTTCGTA | 0.0309 |
| ACGCTAGG | -0.225 |
| GACGTACC | -0.182 |
| AATATTAA | 0.224 |
| AGCCTAAT | -0.0476 |
| ATATATGA | 0.0649 |
| AACAACGC | 0.0779 |
| CGGTCCAG | -0.273 |
| ACCCAAGT | -0.143 |
| AACGATCG | -0.0317 |
| ATACTGGG | -0.194 |
| AACTAGTC | -0.146 |
| AGGAGGAA | -0.189 |
| CGCTGGTA | -0.154 |
| AACCACCT | -0.0136 |
| AAGCTTGG | -0.131 |
| ACGCCATG | 0.197 |
| AATTGGTC | 0.061 |
| AGATCTAT | -0.14 |
| ATATCCAT | 0.0536 |

| Sequence | PBM E-score |
| --- | --- |
| CACGTCAA | -0.121 |
| CAGGAACC | -0.291 |
| CTCTTCCC | -0.158 |
| AGCGTGAC | -0.111 |
| GCGTCTGA | 0.0171 |
| AAAATCGA | 0.167 |
| ATACTATA | 0.00844 |
| AAAATCCG | 0.0996 |
| CAACTCAA | 0.125 |
| CGATGCGC | -0.0803 |
| CGTAAAAG | 0.2 |
| AACGATAT | 0.234 |
| CTGAGGCA | 0.192 |
| CTTAAGAC | 0.0928 |
| ATGCGCTA | -0.239 |
| CCGCGTAA | 0.244 |
| TTACGGAA | 0.00983 |
| CGATCTTA | 0.0388 |
| CGAAGAGC | 0.0374 |
| ACGGTCCT | -0.219 |
| CATTGAGC | 0.0677 |
| TAGTCAAA | 0.012 |
